The labels stand for the following.
B1: CPEB3 Ribozyme (parent)
chain: UAACAGGGGGCCACAGCAGAAGCGUUCACGUCGCAGCCCCUGUCAGAUUCUGGUGAAUCUGCGAAUUCUGCUGUAUAUCUC

Read counts are not given, so values of variants with three or more changes are uncertain.

In this data set the parent is B1. Description: self-cleavage, relative activity (ratio to wild type); higher = more cleavage; in vitro, sequencing. The method in brief:
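Relative activity compares each variant's cleaved/total read fraction with that of the unmutated ribozyme. To get these fractions, barcoded CPEB3 ribozyme libraries from rounds of error-prone PCR were transcribed with T7 RNA polymerase for 5 hours at 37°C and then given 15 min of DNase I treatment before EDTA was added. The RNAs were reverse transcribed with template switching and sequenced on Illumina, and DNA sequencing linked barcodes to variants. A minimum of 5 reads applied, and three batches were averaged.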
Turning to UAACGGGGGGCCACGGCAGAAGCGUUCACGGCGCAGCCCCUGUCAGAUUCUGGUGAAUCUGCGAAUUCUGCUGUAUAGCUC, the self-cleavage is 0.8.

For the variant UAACGGGGGGCCACUGCAGAAGCGUUCACGUCGCAGCCCUUGUAAGAUUCUGGUGAAUCUGCGAAUCCUGCUGUAUAUCUC, the self-cleavage amounted to 0.18.

As to UAACGGGGGGCCACUGCAGAAGCGUACACGUCGCAGCCCCUGUCGGAUUCUGGUGAAUCCGCGAAUUCUGCUAUAUAUCUC, the self-cleavage was 0.57.

UAACGGGGGGCCACUGCAGAAGCGUUCACGUCGCUGCCCCUGUCAGAUUCUGGUGAAUCUGCGAAUACUGCUGUAUAUCUC: the self-cleavage amounted to 0.1.

Regarding UAACGGGGGGCCACAGCCGAAGGGUUCACGUCGCAGCCCCUGUCAGUUUCUGGUGAAUCUGCGAAUUCUGCUGUAUAUCUC, the self-cleavage was 0.05.

Consider UAACGGGGGGCCACGGCAGAAGCGUUCACGUCGCAGCCCCUGUCAGAUCCUGGUGAAUCUGCGUAUUCUGCUGUGUAUCUC, for which the self-cleavage is 0.35.

Take UAACGGGGGGCCACUGCAGAGGCGUUCACGUCGCAGCCCCUGUCAGAUUCUGGUGAAUCAGCGAAUUCUGCUGUAUAUCUC: the self-cleavage came out at 0.41.

Take UAACGGGGGGCCACAGCGGGAGCGUUCACGUCGCAGCCCCUGUCAGAUUCUGGUGAACCCGCGAAUUCUGCUGUAUAUCAU: the self-cleavage came out at 0.12.

In the case of UAACGGGGGGCCACUGCAGAAGCGUUCAGGCCGCAGCCCCUGUCAGAUUCUGGUGAAUCUGCGAAUUCUGCUGUAUAUCUC, the self-cleavage stood at 0.07.

In the case of UAACGGGGGGCCACGGCAGAAGCGUCCACGUCGCAGCCCCUGUCAGAUUCUGGUGAAUCUGCGAAUUCUGCAGUAUAUCUC, the self-cleavage came to 0.07.

In the case of UAACGGGGGGCCACAGCCGAAGCGUUCACGUCGCAGCCCCAGUCAGAUUCUGGCGAAUCUGCGAGUGCUGCUGUAUAUCUC, the self-cleavage came out at 0.26.

Turning to UAACGGGGGGCCACUGCAGGAGCGUUCACGUCGCAGCCCCUGUCAGAUUCUGGUGAAUCUGCGAAUUCUGCAGUAUAUCUC, the self-cleavage was 0.49.

Consider UAACGGGGGGCCACGGCAGAAGCGUUCACGUCGCAGCCCCUGUCAGAUUCUGGUGAAUCUGCGAAUUCUGCUGUAAAUCUC, for which the self-cleavage came to 0.61.

Turning to UAACGGGGGGCCACAGCGGAAGCGUUCACGUCGCAGCCCCUGUCGGAUUCUGGUGAAUCUGCGAAUUCUGCCAUAUAUCUC, the self-cleavage was 0.18.

As to UAACGGGGGGCCACUGCAGGAGCGUUCACGUCGCAGCCCCUGCCAGAUUCUGGUGAAUCUGCGAAUUCUGCUGUAUAUCUC, the self-cleavage amounted to 0.38.

Turning to UAACGGGGGGCCACUGCAGAAGCGUCCACGUCGCAGCCCCUGUCAGAUUCUGGUGAAUCUGCGAAUUCUGCUGUAUAUCUC, the self-cleavage was 0.2.

As for UAACGGGGGGCCACAGCCGAAGCGUUCACCUCGCAGCCCCUGUCAGAUUCUGGUGAAUCUGCGAAUUCUGCUGUAUAUCUC, the self-cleavage amounted to 0.08.

Turning to UAACGGGGGGCCACAGCGGAAGCGUUCACGUCGCAGCCCCUGUCAGAUUCUGGUGAGACUGCCAAUUCUUCUGUAUAUCUC, the self-cleavage came to 0.03.

For UAACGGGGGGCCACAGCCGAAGCGUUCACGUCGCAGCCCCUGUCAGAUUCUGGUGAAUCUGCGAAUUCAGCUGUAUAUCUC, the self-cleavage turned out to be 0.35.

Turning to UAACGGGGGGCCACUGCAGAAGCGUCCACGUCGCGGCCCCUGUCAGAUUCUGGUGAAUCUGCGAAUUCUCCUGUAUAUCAC, the self-cleavage was determined as 0.16.

With UAACGGGGGGCCACAGCGGAAGCGUACACGUCGCAGCCCCUGUCAGAUUCUGGUGAAUCUGCGAAUUCUGCUGUAUAUCUC, the self-cleavage was 0.14.

Regarding UAACGGGGGGCCACAGCGGAAGCGUCCACGUCGCAGCCCCUGUCAGAUUCUGGUGAAUCUGCGAAUUCUGCUGUAUAUCUC, the self-cleavage was 0.53.

Regarding UAACGGGGGGCCACUGCAGAAGCGUUCACGUCGCAGCCCCCGUCAGACUCUGGUGGAUCUGCGUAUUCUGCUGUAUAUCUC, the self-cleavage was determined as 0.19.

For UAACGGGGGGCCACUGCAGAAGCGUUCACGUCGCAGCUCCUGUCAGAUUCUGGUGAAUCUGCGAAUUCUGCUGUAUAUCUC, the self-cleavage worked out at 0.74.

As for UAACGGGGGGCCACAGCGGAAGCGUUCACGUCGCGGCCCCUGUCAGAUUCUGGUGAAUCUGCGAAUUCUGCUGUAUAUCUC, the self-cleavage was 0.79.

As for UAACGGGGGGCCACUGCAGAAGCGUUCACGUCGCAGCCCCUGUCGGAUUCUGGAGAAUCUGCGAAUUCUGCUGUAUACCUC, the self-cleavage is 0.29.

For UAACGGGGGGCCACAGCGGAGGCGUUCACGUCGCAGCCCCUGUCAGAUUCUGGUGAAUCUGCGAAUUCUGCUGUAUAUCUC, the self-cleavage is 0.39.

For UAACGGGGGGCCACAGCGGAAGCGUUCACGUCGCAGUCCCUGUCGGAUUCAGGUGAAUCUGCGAAUUCUGCUGAAUAUCUC, the self-cleavage was determined as 0.29.

Turning to UAACGGGGGGCCACAGCGGAAGCGUUCACGUCGCAGCCCCUGUCAGAUUCUGGUGUAUCUGCGAAUUCUGCUGUAUAUCUC, the self-cleavage turned out to be 0.38.

Consider UAACGGGGGGCCACAGCGGAAGCGUUCACGUCGCAGCCCCUGUCAGAUUCUGGUGGAUCUGCGAAUUCUGCUGUAUAUCUC, for which the self-cleavage was found to be 0.2.

UAACGGGGGGCCACAGCGGAAGCGUUCACGUCGCAGCCCCUGUCAAAUUCAGGUGAAUCUGCGAAUCCUGCUGUAUAUCUC: the self-cleavage amounted to 0.08.

For UAACGGGGGGCCACAGCGGAAGCGUUCACGUCGCUGCUCCUGUCAGAUUCUGGUGAAUCUGCGAAUUCUGCUGUAUAUCUC, the self-cleavage amounted to 0.12.

UAACGGGGGGCCACAGCGGAAGCGUUCACGUCGCAGCCCCUGUCAGAUUCUGGUGAGUCUGCGAAUUCUGCUGUAUAUCUC: the self-cleavage turned out to be 0.33.

On to UAACGGGGGGCCACGGCAGAAGCGUACGCGUCGCAGCCCCUGUCAGAUCCUGGUGAAUCUGCGAAUUCUGCUGUAUAUCUC, for which the self-cleavage worked out at 0.35.

These data come from the RNAGym collection of RNA variant scans (doi:10.1093/nar/gkz1192).
